In article PMC5836133:
The other results are listed elsewhere or left out. At the low end of the ranking the order means little.

system: T1, GST-NbGlk1(82-244); assay: protein-binding microarray; conditions: NbGlk1 is a Golden2-like transcription factor of Nicotiana benthamiana; high values mean tight binding; most listed sequences are background and not binding sites; double strand, one strand shown;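 note: rank-based score ranging −0.5 to +0.5 with E above 0.45 taken as significant binding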
T1 sequence: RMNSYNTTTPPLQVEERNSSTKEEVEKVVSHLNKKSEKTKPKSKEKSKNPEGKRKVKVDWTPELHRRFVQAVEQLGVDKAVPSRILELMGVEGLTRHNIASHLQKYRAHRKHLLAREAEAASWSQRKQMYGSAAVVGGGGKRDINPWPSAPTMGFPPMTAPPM

Row | Sequence | binding signal [E-score]
1 | AATAGGGC | -0.0947
2 | AGCCGGAC | -0.253
3 | AACGATAC | -0.0331
4 | AGCCTAAT | -0.142
5 | AACTCCAC | -0.198
6 | AGAGGTAG | -0.183
7 | AGTGCTGC | -0.219
8 | CACTGACC | -0.133
9 | AAGTCTTA | 0.128
10 | ACTCTGTG | -0.0988
11 | ACACCGCT | -0.0746
12 | AATACGAT | 0.294
13 | CAAGTAAG | -0.0631
14 | AAATGGGG | -0.00232
15 | AGGTGACC | -0.26
16 | ATCTTGAG | 0.247
17 | ATCGAACA | 0.111
18 | AGACTAGA | 0.128
19 | AACTCCAT | -0.0877
20 | ATCTTTAG | 0.26
21 | ATACAAAC | 0.0933
22 | ATAAATAG | 0.0539
23 | ACCTGGAT | 0.224
24 | CAATGAGA | 0.0544
25 | AATAGCAG | -0.0661

Row | Sequence | binding signal [E-score]
26 | AGACGATC | 0.259
27 | AAAGTAAG | 0.0408
28 | AAGGACAG | -0.0866
29 | ATAGTCCG | -0.17
30 | AGCATCCT | -0.0903
31 | ATCCTCCA | 0.285
32 | CAAATAAA | 0.161
33 | AGGCGTAA | -0.039
34 | ATCAGCGG | 0.0385
35 | AAAGGCCT | -0.286
36 | ATAACTCG | 0.0874
37 | CAAGGCGG | -0.214
38 | AACAGACG | -0.0158
39 | ACATGCGA | 0.0558
40 | AACGTCGA | 0.0788
41 | CAAGCAGG | -0.0729
42 | ACGATCTA | 0.252
43 | AACCGACA | 0.116
44 | ACCCCCAT | -0.143
45 | ACCACTAC | -0.147
46 | ATGTAAAG | 0.143
47 | CAACTTCC | -0.0611
48 | AAAATTAG | 0.00982
49 | CACTTGAC | -0.0785
50 | AACTTTGC | -0.0119

Row | Sequence | binding signal [E-score]
51 | AAAAGATG | -0.0604
52 | ATGTGATA | 0.231
53 | ACGTCCAC | -0.17
54 | ACATTGTG | -0.119
55 | ATTGTCAG | 0.138
56 | AGTGTGTG | -0.163
57 | AATATCCC | 0.339
58 | AAATTGTA | 0.146
59 | ACTGCCAC | -0.0942
60 | AACATCTC | -0.0203
61 | ACATAAAT | 0.181
62 | ACCTGCCG | -0.247
63 | ATATTTGA | 0.263
64 | AGTCTCTC | -0.216
65 | ATCACACC | 0.139
66 | AGTCAGAC | -0.127
67 | AGACACCG | -0.106
68 | AGCAAATC | 0.419
69 | ACCCCGAA | -0.0811
70 | ATCTATGC | 0.16
71 | ACCTTGAT | 0.152
72 | AGTGTAGG | -0.157
73 | AGCGATGA | -0.0522
74 | AACGCGGT | -0.18
75 | AGGATCGA | -0.0476

Row | Sequence | binding signal [E-score]
76 | ATAAGCAT | 0.11
77 | ATTGTGCG | 0.2
78 | AGTGATCG | 0.105
79 | AACAGGCT | -0.246
80 | AGAGTATG | -0.0636
81 | ACGGCTAC | -0.205
82 | ACAGAAGC | -0.0949
83 | ACCGTGGA | -0.142
84 | CAACCGGA | -0.0104
85 | AGACGAGG | -0.223
86 | ACCCGCAT | -0.105
87 | ACCTGCCA | -0.249
88 | ACCAAACT | 0.00348
89 | AAAACAGA | 0.118
90 | AAGGGGCA | -0.287
91 | AGGGTGCG | -0.0452
92 | AAGTCTGC | -0.215
93 | ATTGCAGG | 0.103
94 | ACTCAGCT | -0.0285
95 | ATAACGAG | 0.0886
96 | ACGATAGA | 0.0113
97 | ATGGCCAA | -0.131
98 | ATGTCGCC | -0.0477
99 | AATATTAC | 0.235
100 | ATGCGCCA | -0.0542

Row | Sequence | binding signal [E-score]
101 | CAAACTGA | -0.0751
102 | AATCCTTA | 0.337
103 | ACCTGAGC | -0.13
104 | AAACGTAT | 0.171
105 | AAGAGGCG | -0.244
106 | ACCATCAC | -0.102
107 | AAAAGCAT | -0.1
108 | ACTTGGTA | -0.0769
109 | ATGAGGTA | 0.0375
110 | AAAACCGA | 0.0406
111 | AGCATGGA | 0.0209
112 | AGAGCCTC | -0.15
113 | AAACATGG | 0.003
114 | CAACCATA | -0.0717
115 | ATGTTAAT | 0.187
116 | ATCAACAC | 0.106
117 | ATTGTTAC | 0.0849
118 | ACGCGGCT | -0.224
119 | AAATCCCA | 0.4
120 | ACCCATTG | -0.1
121 | AATTAAAG | 0.0712
122 | ATCGGTCA | -0.0347
123 | AATCTAGC | 0.404
124 | ACATCGTG | -0.146
125 | ACCGAAGA | 0.0235

Row | Sequence | binding signal [E-score]
126 | AAATCTTC | 0.446
127 | AGGCTACA | -0.202
128 | ATCAAATG | 0.011
129 | CACGGAAG | -0.202
130 | ACATTCTG | 0.0157
131 | AATATGTG | 0.197
132 | CACACCAC | -0.0743
133 | AGCTCCCA | -0.259
134 | CACTCTTA | 0.0276
135 | AGGAAAAG | -0.16
136 | ACAATTGC | -0.035
137 | AGGGGTTC | -0.182
138 | ATCTGTTG | 0.301
139 | AGTATTGC | 0.13
140 | AAAGATAG | 0.0907
141 | ATTTATAG | 0.186
142 | AATGATAC | 0.0977
143 | ATATGAGC | 0.0882
144 | AACCTATC | -0.0294
145 | ACGTAGCG | -0.0933
146 | ACGAATTG | 0.0988
147 | CAACAGCC | -0.272
148 | AAGCCACC | -0.331
149 | AATTGAAT | 0.0598
150 | AAGCATTA | 0.0744

Row | Sequence | binding signal [E-score]
151 | AGGAAAAT | 0.226
152 | ACCACGAC | -0.167
153 | CAAACTTA | 0.00475
154 | AGTAGGCG | -0.0724
155 | ACACGCAT | -0.0111
156 | AAGTATAC | -0.0451
157 | ACCTAACT | -0.0606
158 | AGATTAAC | -0.00754
159 | CACCGGGA | -0.0972
160 | ACAGCACC | -0.18
161 | AGACGGAA | -0.117
162 | ATACCGTA | 0.221
163 | CAGAGCTC | -0.154
164 | AGTCTAAC | -0.11
165 | AGGATCAC | 0.211
166 | CACGGGGC | -0.135
167 | ACCACACG | -0.196
168 | ACACCTAC | -0.0916
169 | ACCGATAC | 0.122
170 | ACTCTCTA | -0.0533
171 | ACGAATAA | 0.0714
172 | AAAGACGA | 0.0808
